Test results published in PubChem BioAssay AID588855 (National Center for Advancing Translational Sciences (NCATS), 2011).
Where “and” joins values, the source holds several entries; their conditions need not be identical. Identical values can stand only once. The whole screen tested about 410,000 compounds, of which about 5,000 (1.2%) were called active. This list was built around the results that the source calls inconclusive (neither active nor inactive); the mix of calls is not that of the screen. Calls follow the shape of the dose curve; as a rule, active = well fitted inhibition curve with a large enough effect; inconclusive = small, poorly fitted or top-dose-only effect; inactive = no such curve, though single readings can be large or run the other way. A potency beside an inconclusive call is a rough fit, not a confirmed value.

Test: qHTS for Inhibitors of TGF-b; also: nearly all actives have a fitted effect of over 65% in size
Details: HepG2 CAGA-GFP TGF-b/SMAD3 reporter, GFP fluorescence, 18 h, TGF-beta stimulated, 500 pg/mL final; series mostly up to 46.1 µM; activity, negative = inhibition: at the top concentration
Summary of the method: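 Using HEPG2 CAGA-GFP reporter cells at 1000 cells/well, we pinned test compounds, stimulated with recombinant TGF-beta (500 pg/mL final) and measured total well GFP after 18 h.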
% is scaled to controls: 0 for no effect and ±100 for the full control effect; potency is read from the fitted curve at half-maximal effect; tags tell the direction and shape of the fitted curve.

SMILES | Potency | activity, negative = inhibition
CC(C)(C)NC(=O)C(c1ccc(-c2ccccc2)cc1)N(C[C@H]1CC[C@@H]([C@@H]2CC[C@H](CO)O2)O1)C(=O)c1ccc2ccccc2c1 (stereo partly drawn) | inconclusive: 22.4 µM [inhibitor, single point] | –
CCOc1ccc(CNC(=O)C2CCCN(c3nnc(C)c4c(C)n(-c5ccccc5)nc34)C2)cc1 (stereo not drawn) | inconclusive: 11.2 µM [inhibitor, single point] and inconclusive: 22.4 µM [inhibitor, partial curve, poor fit] | –
COc1cc(C(=S)N2CCOCC2)cc(OC)c1OC(=O)c1ccc([N+](=O)[O-])cc1[N+](=O)[O-] | inconclusive: 10 µM [inhibitor, partial curve, poor fit] | –
CCOC(=O)C1=C(c2ccccc2)Nc2ncnn2C1c1cc(OC)ccc1OC (stereo not drawn) | inconclusive: 35.5 µM [inhibitor, single point] | –
COc1ccc(-c2cc(NC(C)=O)c3ncc(-c4cccc(C(F)(F)F)c4)n3c2)c(OC)c1 | inconclusive: 35.5 µM [inhibitor, single point] | –
CNc1ccc(Br)cc(C(=O)/C=C/c2cccc(OC)c2)c1=O | inconclusive: 35.5 µM [inhibitor, single point] | –
COc1cccc(/C=N/NC(=O)Cn2ccnc2C)c1 | – | inactive: 6.62%
CC(C)C[C@H](NC(=O)c1[nH]cnc1C(=O)Nc1ccc(Cl)cc1)C(=O)OC(C)(C)C | inconclusive: 25.1 µM [inhibitor, single point] | –
Cc1c(/C=C/C(=O)c2ccccc2O)cnn1C | inconclusive: 0.501 µM [inhibitor, full curve, poor fit] | –
Cc1scc(CN2CCN(c3ccccc3F)CC2)c1C | – | inactive: -21.8%
CCn1c(COc2ccccc2)nnc1SCC(=O)Nc1ccc2c(c1)OCCO2 | inconclusive: 6.31 µM [inhibitor, single point] | –
Cc1ccc(-c2cc(C(=O)N/N=C/c3cccnc3)c3ccccc3n2)cc1C | inconclusive: 20 µM [inhibitor, partial curve, poor fit] | –
CCOC(=O)C1(C)CCCN(C(=O)CCc2ccccc2)C1 (stereo not drawn) | inconclusive: 5.62 µM [inhibitor, single point] | –
COc1ccccc1Oc1ncnc2c1cnn2-c1ccccc1 | inconclusive: 5.62 µM [inhibitor, single point] | –
C[C@H]1CN([C@@H](C)CO)C(=O)c2cccc(NS(=O)(=O)c3ccc(F)cc3)c2O[C@H]1CN(C)Cc1ccc(Cl)c(Cl)c1 | inconclusive: 22.4 µM [inhibitor, single point] | –
CC1(C)C(=O)OC(c2cccs2)C(C)(C)C1=O (stereo not drawn) | – | inactive: -24.1%
CCc1ccc(-c2cc(C)no2)cc1S(=O)(=O)N1CCN(c2ccccn2)CC1 | inconclusive: 17.8 µM [inhibitor, single point] | –
CCc1ccc(-n2nc(CO)c(C(=O)NCCOC)n2)cc1 | inconclusive: 0.355 µM [inhibitor, full curve] | –
CC1=C(C(=O)Nc2ccccc2C)C(c2cccs2)n2nc(SCc3ccccc3)nc2N1 (stereo not drawn) | inconclusive: 3.55 µM [inhibitor, partial curve, poor fit] | –

SMILES | Potency | activity, negative = inhibition
CCc1ccc(N=C2NC(=O)/C(=C/c3cc(OC)c(OC)c(OC)c3)S2)cc1 | inconclusive: 22.4 µM [inhibitor, partial curve, poor fit] | –
CN(CCc1ccccc1)C(=O)c1cccc(NC(=O)Cc2cccc(NC(=O)C3CCN(C(=O)c4ccccc4)CC3)c2)c1 | inconclusive: 35.5 µM [inhibitor, single point] | –
NC(=O)Cn1c(O)c(N=NC(=O)CNC(=O)/C=C/c2ccccc2)c2ccccc21 | inconclusive: 35.5 µM [inhibitor, single point] | –
Oc1oc(-c2ccccc2)nc1C=Nc1ccccc1 | inconclusive: 0.112 µM [inhibitor, full curve, poor fit] | –
C#Cc1cccc(Nc2nc(NCc3ccccc3)nc3ccsc23)c1 | inconclusive: 17.8 µM [inhibitor, partial curve, poor fit] | –
O=C1c2ccccc2N2C(=O)c3ccccc3C2N1Cc1ccccc1 (stereo not drawn) | inconclusive: 35.5 µM [inhibitor, single point] | –
O=C(Cc1ccccc1)Nc1sc2c(c1C(=O)Nc1cccc(Cl)c1)CCCCC2 | inconclusive: 20 µM [inhibitor, partial curve, poor fit] | –
COc1ccc(S(=O)(=O)N2CCOCC2)cc1NC(=O)c1ccc(S(=O)(=O)N2CCCCC2)cc1 | – | inactive: 2.87%
CCc1ccccc1NC(=O)CN(C)C(=O)COC(=O)c1c(Cl)cccc1Cl | – | inactive: 27.1%
O=C1CC(N2CCN(c3ccc(F)cc3)CC2)C(=O)N1Cc1ccc(N2CCCC2=O)cc1 (stereo not drawn) | inconclusive: 12.6 µM [inhibitor, partial curve, poor fit] | –
Cc1ccc(CN2CCC(CO)(CC3CCCCO3)CC2)o1 (stereo not drawn) | inconclusive: 0.794 µM [inhibitor, full curve, poor fit] | –
COc1ccc(/C=N/NC(=S)Nc2ccccc2[N+](=O)[O-])cc1O | inconclusive: 10 µM [inhibitor, partial curve, poor fit] | –
CC(C)(C)C1CCc2c(sc(NC(=O)c3cccc(Cl)c3)c2C(=O)NCc2ccco2)C1 (stereo not drawn) | – | inactive: 1.28%
Cc1ccnc(NC(=O)c2ccccc2NC(=O)c2ccc(Cl)cc2Cl)c1 | inconclusive: 35.5 µM [inhibitor, single point] | –
COc1ccc(S(=O)(=O)N2CCOC2CNC(=O)C(=O)NCc2ccc(F)cc2)cc1OC (stereo not drawn) | – | inactive: 15.3%
CC(=O)c1ccc(NC(=O)C2CCN(c3nnc(C)c4c(C)n(-c5ccccc5)nc34)CC2)cc1 | inconclusive: 3.16 µM [inhibitor, single point] | –
N#Cc1ccccc1Cn1c(=O)n(Cc2ccc(C(=O)NCc3ccco3)cc2)c(=O)c2sccc21 | – | inactive: 2.78%
CCCCCCn1cc(C(=O)O)c(=O)c2cc(F)c(N3CCN(C)CC3)cc21 | – | inactive: -8.98%
CCCCOc1ccc(NC(=O)CSc2cccc3cccnc23)cc1 | inconclusive: 17.8 µM [inhibitor, single point] | –
